± gives the standard deviation of the averaged measurements. Some of the results follow.
Each sequence was assayed on PfAP2-G AP2 domain (GST-tagged) (assay: gcPBM binding intensity (ln(normalized median fluorescence intensity)); higher = stronger DNA binding).
How it was run: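 Probes on an Agilent 4 × 180k array were primer-extended, double-stranded and 36 bp long, taken from intergenic genomic regions, with negative controls added. GST-tagged P. falciparum DNA-binding domains from E. coli, about 25 μg on average, were applied to the array for 1 h in 1× PBS containing 1% milk, 0.2 mg/ml BSA, 0.5% salmon testes DNA and 0.03% Triton X-100. Binding intensity, obtained after Alexa488 anti-GST antibody detection and a 488 nm scan, is the highest Masliner-normalised natural-log median intensity across replicate spots of either probe orientation.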

| Sequence | gcPBM binding intensity (ln) |
| --- | --- |
| ATAAATATATATATCACACATATATAATTATATATA [CACACA_site4787] | 10 ± 0.38 |
| TACTGTGATAGCACCACACACGCAAAAGTGGGTATA [CACACA_site4749] | 10.2 ± 0.2 |
| TTTAAATCGTTAAAAACACACAAAAAAAATCAATTA [CACACA_site2519] | 9.97 ± 0.18 |
| ATTGCAAGTTACTTGTGTACTTATAAGATTAAAAGA [XGTACX_site7696] | 11.5 ± 1 |
| TAATAATACCCAAGCACACACACACCCATATATATA [CACACA_site4831] | 10.1 ± 0.13 |
| AATATAAATAAAAACACACACAATGGTACATATATA [CACACA_site3671] | 10.9 ± 0.46 |
| TCTATACCAGAAAAGGGTACATATTTTGGATTGAAC [XGTACX_site8402] | 11.1 ± 0.61 |
| ATTATGCACCAACACACACACACACTCCTAAAAAAT [CACACA_site8822] | 10.4 ± 0.38 |
| CGAATATATTCTAGACGTACTATATAATATATATAT [XGTACX_site4953] | 11.1 ± 0.69 |
| GATAATTACGGACACACACACACACGCACAACTAAA [CACACA_site7254] | 11.5 ± 0.87 |
| ACTATCATTCATAGGTGTACCTAAATATATATATAT [XGTACX_site1696] | 11.5 ± 1.1 |
| TCTTTTTCTTCTTATGTGCACATCAATTATGCTTCT | 10.5 ± 0.31 |
| ATAATAAAAATATATACATGCATTATTATATATATA [TGCATGCA_site799] | 9.635 ± 0.049 |
| CAACAATTTCGTCATACACACATTCAGAATATAGAT [CACACA_site7166] | 10.24 ± 0.042 |
| ATAATATTTTTTAATTGTACGTTCCATTTTTTTAAA [XGTACX_site1227] | 11.1 ± 0.64 |
| TTATTTCGAAGAAAATGTACATATATAAATATATAC [XGTACX_site3308] | 11.1 ± 0.62 |
| ATATGTATATATGTATGTACGTACAAATTGTTGTAA [XGTACX_site8832] | 11.7 ± 0.8 |
| TGTATAAAGATATATACACACATATTTATTTATATA [CACACA_site6493] | 9.745 ± 0.007 |
| TACAAAATAACTAGCACACATATGTATAAACCTATA [CACACA_site3718] | 10.06 ± 0.049 |
| AGTAGCATATTCTATTGTACATATATATATATATAT [XGTACX_site2980] | 11 ± 0.73 |
| ATTAAAAACGGGTGTACACATATATAAATATATATA [CACACA_site4539] | 11.7 ± 0.89 |
| GTTATATTTTTTTTTTGTACATAATATTGTATTGAC [XGTACX_site6338] | 11.1 ± 0.69 |

| Sequence | gcPBM binding intensity (ln) |
| --- | --- |
| ACCTGAAGAGTCAAACGTACAAATATTATAAAATGA [XGTACX_site3188] | 11 ± 0.64 |
| TTAATACATTAAATATGTACTTATATATCTCAACTA [XGTACX_site3997] | 11.2 ± 0.67 |
| ACATGTCAAACATTTGCACACAAAAAAATAAAAATT [CACACA_site691] | 10.2 ± 0.25 |
| TCATCCGTTTTAAGAAGTACATATTTGAACATATAA [XGTACX_site8040] | 11.3 ± 0.75 |
| CATAGGATTATACTTTTGGAATATTATTAAATATGT [XGTACX_negctrl_site75] | 10.1 ± 0.18 |
| TTTATTTTTTAATGTTGTACAATGTTGTTTAATCAA [XGTACX_site6489] | 11.2 ± 0.88 |
| TTTTTTTCTTTTCAAACACACAATTGGTATATATTA [CACACA_site3320] | 10.1 ± 0.28 |
| TAGAACAAATAAAACACACACATATATATATATATG [CACACA_site2768] | 9.99 ± 0.16 |
| TATATACAAAAATGCACACGAAAAGTAATATATATA [CACACA_site4173] | 10.1 ± 0.33 |
| TATATAAAAATCAATTGTACTTTTTTTTTTTTTTTT [XGTACX_site7327] | 11.4 ± 0.79 |
| ATATATAAAATTATATGTACATATATAATATATATA [XGTACX_site529] | 11.2 ± 0.82 |
| TATATATATATGTGCACACATATATAATATGTATAA [CACACA_site715] | 10.6 ± 0.57 |
| AAATAACACATATATACACACATATAACTATAATAT [CACACA_site7298] | 9.905 ± 0.064 |
| TGTAAATATTTATTCACACATAATCAATTAGAAAAA [CACACA_site5944] | 10 ± 0.13 |
| ATCACAAAATGGAATGTTCTATGATATATATGTATA [XGTACX_negctrl_site460] | 9.58 ± 0.13 |
| AAAAAAAAAAAAAACACACACACAATAGTATATAAA [CACACA_site957] | 10 ± 0.26 |
| TTGTTACTGTTTTGGTGTACAAAAAAAAAAAATATA [XGTACX_site5762] | 11.4 ± 0.98 |
| TACTTACTTACTTACTCACACACATATACAAAGAAA [CACACA_site3348] | 10.6 ± 0.44 |
| TATATATATTTTTATGCACACACAAAGAAAATTTTC [CACACA_site8931] | 10.2 ± 0.18 |
| AATACAGATAATACAACACACAAGTAATATAAACCT [CACACA_site5900] | 9.975 ± 0.021 |
| TATAAATACAGATACACACACACACCGATATATATA [CACACA_site5271] | 10.1 ± 0.21 |
| AATATATAAATCTATTGTACATAAAGAGGATAATAA [XGTACX_site1022] | 11 ± 0.64 |

| Sequence | gcPBM binding intensity (ln) |
| --- | --- |
| GATGATTATATATATACGCACACTTTTTTTTTTTTT [CACACA_site2652] | 10.11 ± 0.092 |
| CTCATTCTTTTTTGATGTACTTTTTTTTTTTAAGTT [XGTACX_site2875] | 11.6 ± 0.81 |
| ATATATATATATATATGTACATATTTATTTATTTAT [XGTACX_site5161] | 11.1 ± 0.58 |
| AGCACAGACTAATAAACACACACATATATATATATA [CACACA_site8021] | 10.1 ± 0.33 |
| ATAGTATACGGACACACACACACACCGATATATATA [CACACA_site5032] | 11.3 ± 0.76 |
| AAAAGAGAAACATTTACACACAAATATAGATATATG [CACACA_site1027] | 9.98 ± 0.014 |
| TTGTATAATTTAACAAGTACAAAATAAATTTGTATA [XGTACX_site5505] | 11 ± 0.73 |
| TTCAATTAAAAAATATGTACGCATAAATTGATATAT [XGTACX_site4289] | 11.4 ± 1 |
| TTTTATGGAAAGTGTTGTACATATTTTTGTATATGT [XGTACX_site7356] | 11.4 ± 0.76 |
| CACACGTATAAATATACACACTAAAATACACGCACA [CACACA_site7876] | 10.4 ± 0.29 |
| TATCTTATATTTACACGTACGTAGAATTTATAAGTT [XGTACX_site3460] | 11.3 ± 0.78 |
| TTTTATTAATATTATTTATCTTCTCAAAAGATATAT [XGTACX_negctrl_site202] | 9.87 ± 0.23 |
| TTTAATATGTATTTTTTTTTTTTTTTTTTTTTTTTT [XGTACX_negctrl_site440] | 11 ± 0.6 |
| TTTTTTTTTTTTTTTTGTACATATTTCTTATAAGTG [XGTACX_site6459] | 11 ± 0.98 |
| TATAACAGGAATTATATATATATATATATATATTAT [CACACA_negctrl_site911] | 9.465 ± 0.021 |
| CTTTTTTTAGTTAGGTGTACAATTTGTTATTATTAG [XGTACX_site1507] | 11.5 ± 0.77 |
| AACTTCTTTTTTATAACACACAAAATATAAATACAA [CACACA_site4313] | 10.2 ± 0.43 |
| GGAAGAATATATAGGACACACATACAATAATAAATA [CACACA_site6124] | 10.8 ± 0.64 |
| TTTTTTTTTTTTTTTTTGCAATATATTTTAAAAAAG [CACACA_negctrl_site25] | 9.65 ± 0.44 |
| TTTTTTTTTTTTTTTTTTTTTTGTGAAACTAAGTAA [CACACA_negctrl_site273] | 9.68 ± 0.46 |
| AACATATAAATGATATGTACACACATTTATATATAT [XGTACX_site7364] | 11.4 ± 0.53 |
| CAAATTAAATATTATGCATGTACCAAACATCCTACC [TGCATGCA_site35] | 10.8 ± 0.52 |

| Sequence | gcPBM binding intensity (ln) |
| --- | --- |
| TAATACAAAAAGAAAAGTACATGTTAATTATTATTT [XGTACX_site2196] | 11.2 ± 0.67 |
| TTTTATATCTAGTTTATATTTCTTAAATAAATAAAT [GTGCAC_negctrl_site245] | 9.83 ± 0.028 |
| CAAATACATGGACACACACACATATACAGATATATA [CACACA_site5854] | 11 ± 0.61 |
| TTGAAGTTTGATTGTAGTACGAATTGGTAGTTTTTT [XGTACX_site6854] | 11.1 ± 0.79 |
| TTTTTTTTTTTTTTCTGTACTTAAAAAGGGGGAGAA [XGTACX_site3799] | 11.3 ± 0.95 |
| CAAACATGTTCAAATTGTACAATAGAAAATATATAT [XGTACX_site1557] | 10.7 ± 0.4 |
| GATTATATATACAAAAGTACATTATAAAAATTTCAT [XGTACX_site4223] | 11.2 ± 0.89 |
| CCCTTAAAATATAAATGTACAAAATTATTTGTATGT [XGTACX_site6164] | 10.9 ± 0.57 |
| ATAAACATCTAGTGCTGTACACAATTTGATTTTTTT [XGTACX_site3110] | 11.4 ± 0.81 |
| TTCTTTTAATTACGAGTGCATACCATATGACATTAT [GTGCAC_site9819] | 10.5 ± 0.31 |
| GTGAATATTAAAAAATGTACACAATTATATGTATAT [XGTACX_site4834] | 11.2 ± 0.73 |
| AGAAAAGAGAGAAAAACATGCACATGATATTATAAA [TGCATGCA_site120] | 9.4 ± 0.4 |
| CATATATAACATATAACACACATACTTAGTATTACA [CACACA_site5674] | 10.1 ± 0.24 |
| ATGATAAACATGGATACACACATATATATTACATAT [CACACA_site1576] | 10.4 ± 0.28 |
| ATAATATTTTATATAGTGCATTTGCTCATTATATAT [GTGCAC_site9528] | 9.775 ± 0.035 |
| ACATATATATACTATCGATTAATAAATTTGTTTTTT [CACACA_negctrl_site881] | 9.975 ± 0.007 |
| TATTTATAACATTGTACACACAAAGAAATAATATTA [CACACA_site7422] | 11.3 ± 0.84 |
| ACGTATGTATATTACACACATACATATTATTCACTA [CACACA_site204] | 10.1 ± 0.16 |
| AGGTTAATCGAAATTGCATGTGACGAAAAATCAAAA [TGCATGCA_site666] | 9.89 ± 0.11 |
| TGAGTATATATAAATACACACCAAATGTTAATATAT [CACACA_site5022] | 9.88 ± 0.028 |
| AAATATACATACATATGTACATATATATATATATAT [XGTACX_site8202] | 11.1 ± 0.69 |
| ATAGTTAAAAAAAAAAAAAAAAAAAAAAGAGAGAGA [CACACA_negctrl_site1307] | 10.1 ± 0.38 |
